Assay results published in US20260042860A1 (Memorial Sloan Kettering, published 2026).

Biological target: T1, CD24 on CD24(+) DSRCT cell lines (BER, BER-luc, SK-DSRCT-2-luc) (human)
T1 construct: also called DSRCT cell line BER; BER cell line
T1 chain: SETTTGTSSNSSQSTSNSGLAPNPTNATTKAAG
Test: flow cytometry on DSRCT cell line BER
Protocol: CD24 BsAb binding to DSRCT cells. Binding of the humanized CD24 BsAb to target cells (DSRCT cell line BER) was evaluated by flow cytometry. […] The dotted line represents the level of background staining, above which is considered a positive signal.

B1: humanized CD24×CD3 (huOKT3) BsAb (BC436) (bispecific antibody, human IgG1, kappa)
heavy: QVQLQESGPDLVKPSQTLSLTCTVSGYSITSGYTWHWIRQFPGNGLEWIGYIQYTGSTRYNPSLKSRVTISRDTSKNQFFLQLSSVTAADTAVYFCARGTTASFDYWGQGTLVTVSS[human IgG1 constant region with changes left out here]
light: DIVMTQSPSSLNVSLGERATIRCKSSQSLLYSSDQKNYLAWYQQKPGQPPKLLIYWASTRESGVPDRFSGSGSGTDFTLTISSLKAEDVAVYYCQQYFIYPLTFGVGTKLGLKRTVAAPSVFIFPPSDEQLKSGTASVVCLLNNFYPREAKVQWKVDNALQSGNSQESVTEQDSKDSTYSLSSTLTLSKADYEKHKVYACEVTHQGLSSPVTKSFNRGECTSGGGGSGGGGSGGGGSQVQLVQSGGGVVQPGRSLRLSCKASGYTFTRYTMHWVRQAPGKCLEWIGYINPSRGYTNYNQKFKDRFTISRDNSKNTAFLQMDSLRPEDTGVYFCARYYDDHYSLDYWGQGTPVTVSSGGGGSGGGGSGGGGSGGGGSGGGGSGGGGSDIQMTQSPSSLSASVGDRVTITCSASSSVSYMNWYQQTPGKAPKRWIYDTSKLASGVPSRFSGSGSGTDYTFTISSLQPEDIATYYCQQWSSNPFTFGCGTKLQITR
notes: IgG-[L]-scFv format on human IgG1; also called humanized CD24 BsAb; hu CD24 BsAb
binding result: binds
